# According to the supplement of paper PMC5499739:
# Whole data set: some 16,000 sequences, median “Z-score” near -0.37, cut for the highest 2% near 3.2. The list shows a part of the results.
# Tested on: RBM10 RRM1-ZnF (GST-tagged construct)
# Experiment: RNAcompete 7-mer binding Z-score; higher = stronger binding preference
# Outline: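 GST-tagged RBM10 constructs (20 pmol) were mixed with a designed pool of 241 399 RNAs up to 41 nt (1.5 nmol), transcribed from microarray-derived DNA templates. Mixing was in 1 ml Hepes pH 7.8 buffer with KCl, NaCl, glycerol, DTT, BSA and glutathione Sepharose beads. Binding ran 30 min at 4°C, followed by four 2-min washes at 4°C, and bound RNA was identified by microarray hybridisation. Each heptamer motif received a one-sided Z-score for enrichment across probes containing it.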
row,Sequence,RNAcompete 7-mer binding Z-score
1,GAACCAC,-0.477
2,CAUUAAA,-0.733
3,ACUAGAU,-0.386
4,CCUUUUG,-0.909
5,UAAUGGC,0.456
6,UGCAGGU,0.849
7,AGUAGAC,0.264
8,UUUUUGU,-0.685
9,GGUCCCG,0.218
10,UCCCCAA,-0.48
11,GAUCAAU,-0.236
12,CUCUCGA,-0.594
13,UCUGAUG,-0.474
14,UAACCAU,-0.772
15,CAGAAAU,-0.629
16,CGGCCAA,-0.493
17,GUCGGGA,1.24
18,CGUACGG,0.498
19,GGUACCA,0.218
20,AAACUAC,-0.448

row,Sequence,RNAcompete 7-mer binding Z-score
1,UAAUGUU,-0.35
2,UAUAAGA,-0.00571
3,ACAAUUC,-0.655
4,CUAUAAG,-0.275
5,CGCCGAA,-0.558
6,GGCUGCG,0.803
7,CAGGUCA,0.498
8,CGGCCGC,-0.49
9,GCUCCGA,-0.688
10,ACGUCUA,-0.571
11,CAGCCAG,-0.493
12,ACUAGUC,-0.532
13,GAUAUAU,-0.178
14,GCAACGC,-0.207
15,CAUAGAA,-0.204
16,UUAUAUU,-0.526
17,CGUACCA,-0.597
18,AAACUGU,-0.503
19,UUCAUGC,-0.685
20,UGGCCAA,-0.324

row,Sequence,RNAcompete 7-mer binding Z-score
1,AAGGCCU,-0.457
2,AACAAUG,-0.126
3,GUUGACG,0.495
4,AGUGUCC,-0.604
5,GGACAAG,1.56
6,GUGUUCC,-0.402
7,CCGAACG,-0.201
8,GCGGCAA,0.443
9,CUAACCC,-0.756
10,AAGGUCC,0.319
11,UGAAGGA,2.99
12,GUAGUAC,0.29
13,AGAGGGC,0.771
14,UCUGGAG,0.0983
15,GUUGAAC,0.0495
16,GGCUCAA,-0.126
17,AAAGAGC,0.53
18,ACGACGG,0.732
